Measured values as given in paper PMC9911399, “Two distinct binding modes provide the RNA-binding protein RbFox with extraordinary sequence specificity”.
Numbering of substitutions follows the chain as printed; changes in the protein carry UniProt numbers. This is one part of the list.

T1: RBFOX1 RRM (Homo sapiens, UniProt Q9NWB1 109-208)
T1 sequence: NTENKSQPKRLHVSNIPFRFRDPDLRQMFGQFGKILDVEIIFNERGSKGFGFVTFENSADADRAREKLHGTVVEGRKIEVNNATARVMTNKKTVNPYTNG

B1: UUCGGGA (DNA:RNA)
RNA: GGGAGACCGGAAUUCAGAUUGUCCUUCGGGAUUAAAUCCCGUCGUAGCCACCA
DNA 1: CAATCTGAATTCCGGTCTCCC
DNA 2: TGGTGGCTACGACGGGATT
B2: AGAUCAG (DNA:RNA)
RNA: GGGAGACCGGAAUUCAGAUUGUCCAGAUCAGUUAAAUCCCGUCGUAGCCACCA
DNA 1: CAATCTGAATTCCGGTCTCCC
DNA 2: TGGTGGCTACGACGGGATT
B3: CCGAGUA (DNA:RNA)
RNA: B1 RNA with U25C, U26C, C27G, G28A, G30U
DNA 1: CAATCTGAATTCCGGTCTCCC
DNA 2: TGGTGGCTACGACGGGATT
B4: UUUUGUA (DNA:RNA)
RNA: B1 RNA with C27U, G28U, G30U
DNA 1: CAATCTGAATTCCGGTCTCCC
DNA 2: TGGTGGCTACGACGGGATT
B5: GAUUAGG (DNA:RNA)
RNA: B2 RNA with A25G, G26A, A27U, C29A, A30G
DNA 1: CAATCTGAATTCCGGTCTCCC
DNA 2: TGGTGGCTACGACGGGATT
B6: UGCGCCA (DNA:RNA)
RNA: B1 RNA with U26G, G29C, G30C
DNA 1: CAATCTGAATTCCGGTCTCCC
DNA 2: TGGTGGCTACGACGGGATT
B7: CUCCCUA (DNA:RNA)
RNA: B1 RNA with U25C, G28C, G29C, G30U
DNA 1: CAATCTGAATTCCGGTCTCCC
DNA 2: TGGTGGCTACGACGGGATT
B8: UGUUUCG (DNA:RNA)
RNA: B2 RNA with A25U, A27U, C29U, A30C
DNA 1: CAATCTGAATTCCGGTCTCCC
DNA 2: TGGTGGCTACGACGGGATT
B9: CUGUUUG (DNA:RNA)
RNA: B2 RNA with A25C, G26U, A27G, C29U, A30U
DNA 1: CAATCTGAATTCCGGTCTCCC
DNA 2: TGGTGGCTACGACGGGATT
B10: CCCAUUU (DNA:RNA)
RNA: B1 RNA with U25C, U26C, G28A, G29U, G30U, A31U
DNA 1: CAATCTGAATTCCGGTCTCCC
DNA 2: TGGTGGCTACGACGGGATT
B11: AUUUUCA (DNA:RNA)
RNA: B2 RNA with G26U, A27U, C29U, A30C, G31A
DNA 1: CAATCTGAATTCCGGTCTCCC
DNA 2: TGGTGGCTACGACGGGATT
B12: ACCCUAC (DNA:RNA)
RNA: B2 RNA with G26C, A27C, U28C, C29U, G31C
DNA 1: CAATCTGAATTCCGGTCTCCC
DNA 2: TGGTGGCTACGACGGGATT
B13: CAGUAGU (DNA:RNA)
RNA: B2 RNA with A25C, G26A, A27G, C29A, A30G, G31U
DNA 1: CAATCTGAATTCCGGTCTCCC
DNA 2: TGGTGGCTACGACGGGATT
B14: AAUAGUA (DNA:RNA)
RNA: B1 RNA with U25A, U26A, C27U, G28A, G30U
DNA 1: CAATCTGAATTCCGGTCTCCC
DNA 2: TGGTGGCTACGACGGGATT
B15: GUCAAAG (DNA:RNA)
RNA: B2 RNA with A25G, G26U, A27C, U28A, C29A
DNA 1: CAATCTGAATTCCGGTCTCCC
DNA 2: TGGTGGCTACGACGGGATT
B16: UACUUAC (DNA:RNA)
RNA: B2 RNA with A25U, G26A, A27C, C29U, G31C
DNA 1: CAATCTGAATTCCGGTCTCCC
DNA 2: TGGTGGCTACGACGGGATT
B17: UUGAAUC (DNA:RNA)
RNA: B1 RNA with C27G, G28A, G29A, G30U, A31C
DNA 1: CAATCTGAATTCCGGTCTCCC
DNA 2: TGGTGGCTACGACGGGATT
B18: CCUCCUA (DNA:RNA)
RNA: B2 RNA with A25C, G26C, A27U, U28C, A30U, G31A
DNA 1: CAATCTGAATTCCGGTCTCCC
DNA 2: TGGTGGCTACGACGGGATT
B19: UCGACGA (DNA:RNA)
RNA: B1 RNA with U26C, C27G, G28A, G29C
DNA 1: CAATCTGAATTCCGGTCTCCC
DNA 2: TGGTGGCTACGACGGGATT
B20: GGAGCCA (DNA:RNA)
RNA: B2 RNA with A25G, U28G, A30C, G31A
DNA 1: CAATCTGAATTCCGGTCTCCC
DNA 2: TGGTGGCTACGACGGGATT

target: T1, RBFOX1 RRM; assay: EMSA; HiTS-Eq, 1 nM pool, 10 min; buffer printed only for the single-RNA assays: 10 mM Tris pH 7.5, 150 mM NaCl, 3.4 mM EDTA, 0.001% NP-40, 30 C; details: tags: His6 N-terminal (pET28a); label: 5' 32P
How it was run: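 These values rest on relative association constants, computed from read-count changes of each RNA species versus the control reaction and normalised to the cognate motif. Reads came from free RNA recovered by 8% native PAGE after purified RbFox RRM (wild type or mutant) at increasing concentrations was equilibrated for 10 min in 50 µL with 1 nM of a 5′-radiolabelled pool with 7 randomized nucleotides and DNA-annealed flanks.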

Row | Binder | binding signal
1 | B1 | 0.00228 KA relative to UGCAUGU
2 | B2 | 0.0105 KA relative to UGCAUGU
3 | B3 | 0.00679 KA relative to UGCAUGU
4 | B4 | 0.0135 KA relative to UGCAUGU
5 | B5 | 0.0123 KA relative to UGCAUGU
6 | B6 | 0.0124 KA relative to UGCAUGU
7 | B7 | 0.00022 KA relative to UGCAUGU
8 | B8 | 0.0238 KA relative to UGCAUGU
9 | B9 | 0.0332 KA relative to UGCAUGU
10 | B10 | 0.000308 KA relative to UGCAUGU
11 | B11 | 0.00433 KA relative to UGCAUGU
12 | B12 | 0.000575 KA relative to UGCAUGU
13 | B13 | 0.0072 KA relative to UGCAUGU
14 | B14 | 0.0044 KA relative to UGCAUGU
15 | B15 | 0.00861 KA relative to UGCAUGU
16 | B16 | 0.00405 KA relative to UGCAUGU
17 | B17 | 0.0179 KA relative to UGCAUGU
18 | B18 | 0.00311 KA relative to UGCAUGU
19 | B19 | 0.00715 KA relative to UGCAUGU
20 | B20 | 0.00985 KA relative to UGCAUGU
